In PubChem BioAssay AID2202238 (Ras Initiative Chemistry Research Team, Frederick National …, 2025):
This is one part of the list. These are further read-outs of the screen, such as a control signal, another cell line or another target. No call is given for them.

Molecular target: GTPase KRas (Homo sapiens) (UniProt P01116)
Assay: Fragment capture on engineered cysteines, share of protein labelled (AID 2202238)
Parameters: protein at 5 µM with 500 µM competing thiol for 1.5 h
Settings: KRAS G12D cysteine mutants, disulfide tethering, MALDI-TOF labeling, stronger effect = higher value, fragment at 500 µM
[1] = measured here: G60C mutant labeling
[2] = measured here: G75C mutant labeling
[3] = measured here: H94C mutant labeling
[4] = measured here: I36C mutant labeling
[5] = measured here: L120C mutant labeling
[6] = measured here: M67C mutant labeling
[7] = measured here: M72C mutant labeling
[8] = measured here: N26C mutant labeling
[9] = measured here: N86C mutant labeling
[10] = measured here: P121C mutant labeling
[11] = measured here: S122C mutant labeling
[12] = measured here: S136C mutant labeling

Chain of UniProt P01116 (P01116 whole entry, looked up, the tested form may be a part): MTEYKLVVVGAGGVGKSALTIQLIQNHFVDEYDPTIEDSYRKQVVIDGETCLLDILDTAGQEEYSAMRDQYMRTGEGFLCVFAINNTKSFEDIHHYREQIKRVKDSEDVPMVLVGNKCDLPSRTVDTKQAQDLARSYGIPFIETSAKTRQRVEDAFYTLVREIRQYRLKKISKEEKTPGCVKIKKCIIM

Cc1c(CC(=O)NCCS)nnn1-c1ccccc1
percent labeling [1]: 40.7% | percent labeling [2]: 16.9% | percent labeling [3]: 34.8% | percent labeling [4]: 29.1% | percent labeling [5]: 51.1% | percent labeling [6]: 42.9% | percent labeling [7]: 42.8% | percent labeling [8]: 40.1% | percent labeling [9]: 26.6% | percent labeling [10]: 35.4% | percent labeling [11]: 37.5% | percent labeling [12]: 47.7%

O=C(NCCS)c1cn(-c2ccc(Br)cc2)cn1
percent labeling [1]: 9.6% | percent labeling [2]: 6.4% | percent labeling [3]: 9.4% | percent labeling [4]: 7.6% | percent labeling [5]: 8.9% | percent labeling [6]: 7.5% | percent labeling [7]: 58.6% | percent labeling [8]: 22.7% | percent labeling [9]: 6.5% | percent labeling [10]: 6.8% | percent labeling [11]: 5.1% | percent labeling [12]: 9.9%

O=C(CCS)Nc1ccc(N2CCOCC2)cc1Cl
percent labeling [2]: 9.9% | percent labeling [3]: 33.1% | percent labeling [4]: 39.2% | percent labeling [5]: 24.9% | percent labeling [6]: 32.3% | percent labeling [7]: 35.8% | percent labeling [9]: 17.3% | percent labeling [10]: 25.4% | percent labeling [11]: 23.2% | percent labeling [12]: 44.6%

Cc1cc(C)c(C(=O)NCCS)c(C)c1Br
percent labeling [1]: 51.3% | percent labeling [2]: 15.8% | percent labeling [3]: 20.3% | percent labeling [4]: 15.4% | percent labeling [5]: 17.6% | percent labeling [6]: 15.6% | percent labeling [7]: 28.4% | percent labeling [8]: 34.9% | percent labeling [9]: 7.6% | percent labeling [10]: 26.1% | percent labeling [11]: 11.9% | percent labeling [12]: 22%

CC(C)N(C)c1ccc(C(=O)NCCS)cc1
percent labeling [1]: 26.5% | percent labeling [2]: 20.5% | percent labeling [3]: 14.4% | percent labeling [4]: 13.5% | percent labeling [5]: 14.8% | percent labeling [6]: 14.9% | percent labeling [7]: 68.2% | percent labeling [8]: 40.7% | percent labeling [9]: 24% | percent labeling [10]: 17.9% | percent labeling [11]: 11% | percent labeling [12]: 25.8%

Cn1cc(C(=O)NCCS)c(-c2cccnc2)n1
percent labeling [1]: 17.7% | percent labeling [2]: 9.2% | percent labeling [3]: 28.6% | percent labeling [4]: 27.5% | percent labeling [5]: 20.1% | percent labeling [6]: 28.3% | percent labeling [7]: 16.6% | percent labeling [8]: 32.1% | percent labeling [9]: 16.9% | percent labeling [10]: 23% | percent labeling [11]: 19.5% | percent labeling [12]: 43.9%

Cc1nc(CCC(=O)NCCS)oc1-c1ccccc1
percent labeling [1]: 36.2% | percent labeling [2]: 18% | percent labeling [3]: 35.5% | percent labeling [4]: 20.6% | percent labeling [5]: 27.1% | percent labeling [6]: 34% | percent labeling [7]: 35.2% | percent labeling [8]: 34.4% | percent labeling [9]: 18.3% | percent labeling [10]: 21.7% | percent labeling [11]: 19.1% | percent labeling [12]: 31.6%

O=C(NCCS)C1CCN(C(=O)c2ccc3ccccc3c2)CC1
percent labeling [1]: 41.9% | percent labeling [2]: 9.1% | percent labeling [3]: 19.8% | percent labeling [4]: 20% | percent labeling [5]: 10.7% | percent labeling [6]: 52.3% | percent labeling [7]: 12.8% | percent labeling [8]: 23.4% | percent labeling [9]: 13.2% | percent labeling [10]: 12.3% | percent labeling [11]: 3.5% | percent labeling [12]: 16%

O=C(NCCS)c1cc(-n2ccnn2)ccc1F
percent labeling [1]: 38.1% | percent labeling [2]: 23.2% | percent labeling [3]: 37% | percent labeling [4]: 29.8% | percent labeling [5]: 42% | percent labeling [6]: 36% | percent labeling [7]: 41.8% | percent labeling [8]: 46.3% | percent labeling [9]: 30.3% | percent labeling [10]: 34.3% | percent labeling [11]: 31.9% | percent labeling [12]: 55%

O=C(CCS)NC1CC2(CCC2)C12CCC2 (stereo not drawn)
percent labeling [2]: 22.5% | percent labeling [3]: 33.8% | percent labeling [4]: 29.9% | percent labeling [5]: 15.1% | percent labeling [6]: 23.1% | percent labeling [7]: 47.7% | percent labeling [9]: 25.4% | percent labeling [10]: 28% | percent labeling [11]: 22.3% | percent labeling [12]: 40.1%

O=C(NC1CCN(C(=O)CCS)CC1)C1CC1
percent labeling [2]: 10.2% | percent labeling [3]: 24.4% | percent labeling [4]: 28.6% | percent labeling [5]: 26.7% | percent labeling [6]: 27.9% | percent labeling [7]: 13.4% | percent labeling [9]: 21.2% | percent labeling [10]: 31.3% | percent labeling [11]: 38.8% | percent labeling [12]: 50.1%

Cc1cc(C)c(N2CC(C(=O)NCCS)CC2=O)c(C)c1 (stereo not drawn)
percent labeling [1]: 43.4% | percent labeling [2]: 24.3% | percent labeling [3]: 43.3% | percent labeling [4]: 30.3% | percent labeling [5]: 22.7% | percent labeling [6]: 50.5% | percent labeling [7]: 35.5% | percent labeling [8]: 53.4% | percent labeling [9]: 26.1% | percent labeling [10]: 40% | percent labeling [11]: 33.5% | percent labeling [12]: 54.6%

O=C(CCS)NCC1=CS(=O)(=O)c2ccccc21
percent labeling [2]: 9% | percent labeling [3]: 22.1% | percent labeling [4]: 24.4% | percent labeling [5]: 18.1% | percent labeling [6]: 18.4% | percent labeling [7]: 39.4% | percent labeling [9]: 9% | percent labeling [10]: 20.4% | percent labeling [11]: 18% | percent labeling [12]: 29.8%
